Test results from patent US12551573B2, “Compositions and methods for the targeting of PCSK9” (Scribe Therapeutics Inc., priority 2022, dated 2026).
Where two headings read alike, the source gives them in different places.

System: HBEGF locus
Format: cell-based, human
[1] = fold change in abundance of each repressor domain in the dXR library before vs after diphtheria toxin selection, dXR repression of the HBEGF gene, domains meeting p-value <0.01 and log2(fold change) >2
[2] = high-throughput screen of dXR repression of the HBEGF gene, change in abundance of each domain in the library before and after diphtheria toxin selection

Molecule	Log2 (fold change) [1]	Log2 (fold change) [2]
DOMAIN_29377 (protein, listed as Mesocricetus auratus) VSFEDVAVHFTQEEWALLDPSQKSLYRDVMLETCRNLAAIGYIWEEQTIEDDCKNFGRYQRHTISHSEYTPYEHEECGNMPCDP	2.672	–
DOMAIN_27705 (protein, listed as Phascolarctos cinereus) AQDALTFQDVAVDFTWEEWGQLDPAQQNLYRDVMLENYQNLISLGFPVSKPEVISQLEQGEVPWALKRAVAEGSCPDWEAR	2.5921	–
DOMAIN_29339 (protein, listed as Mesocricetus auratus) VTYDDVCIDFTWEEWTLLDPSQKKLYKDVMLETYRNLTAIGYNWENHHVEEYYQSSRRNARNEKSQTAEKPSVNTQCVKAFTH	2.9581	–
DOMAIN_26852 (protein, listed as Mus musculus) MNAVTYEDVHVNFTQEEWALLDPSQKKLYKDVMVETYRNLNAIGFNWEAHNIEEYCQSSRRHRRCERSQSAEKPSEYTQCG	2.8783	–
DOMAIN_26853 (protein, listed as Mus musculus) SVEMLSFRDVAIDFSAGELECLEPAQWDLYRDVMLENFSHLVFLGFSFSKPLLVRFLEKNQELRNVKRKAATVPRGKKPYK	3.6235	–
DOMAIN_29164 (protein, Chelonia mydas) VTFQEVAVCFTEEEWALLDPGQRALYRVVMQENYEAVTSLVAKGNKNSLCQTFCLCWGSPSSMLFCSPSLLQGLQKPQDCRGLYGGAPQCQTV	2.1345	–
DOMAIN_28164 (protein, listed as Callithrix jacchus) QLQETMTFKDVEVTFSQDEWGLLDSAQRNLYRDVMLENYRNMAFLVGPFTKPALISWLEAREPWGLNVQVAQPKRNPGAAP	2.7356	–
DOMAIN_28513 (protein, listed as Propithecus coquereli) QPQEAMTFKDVEVTFSQDEWGSLDSAQRNLYRDVMLENYRNMVSLVGPFTKPALISWLEAREPWGLNVQAAQPKGNPGAAP	2.3747	–
DOMAIN_28417 (protein, Gulo gulo) LLTFEDVAVSFSEEEWRLLDPAQKSLYNDVMQENYETIVSLGLKLKNDTGNDQPISLSALEIQASGCRVLRKARMKVAQKT	2.5366	–
DOMAIN_27866 (protein, listed as Pongo sp.) SQEPVTFADVAVVFTPEEWVFLDSTQRSLYRDVMLENYRNLASVADQLCKPNALSYLEERGEQWTTDRGILSDTCAEPQCQ	2.9226	–
DOMAIN_28341 (protein, listed as Homo sapiens) SQEPVTFADVAVVFTPEEWVFLDSTQRSLYRDVMLENYRNLASVADQLCKPNALSYLEERGEQWTTDRGVLPDTCAEPQCQ	2.7008	–
DOMAIN_27521 (protein, listed as Suricata suricatta) LLTFEDVAVYFTEEEWALLDPNQKILYNDVMQENYENVICLGLKLKNDTGNDQPTSVSTLEIQASGCKVLRKARIKVAQKT	2.7447	–
DOMAIN_27988 (protein, listed as Camelus dromedarius) LLTFEDVALSFTEEEWQLLDPTQKILYNDVMQENYETVISLGLKLKNDTGNDQPISLSTLEIQGSGCKVLRKARVKVAQKT	2.5381	–
DOMAIN_27642 (protein, Puma concolor) LLTFEDVAVSFSEEEWKLLDPAQKILYNDVMQENYETVISLGLKLKNDTGNDQPISVSALEIQASGRKVLRKARMKVAQKT	2.8615	–
DOMAIN_27784 (protein, Ovis aries) SYRSKTMAQGSLTFSDVAIGFSQQEWECLDPVQKTLYRDVMMENYGNLVSLGHSISKPNVITLLEQGKEPWIVVREETRSW	2.1631	–
DOMAIN_26803 (protein, Aquila chrysaetos) GKMPVTFEDVAVYFSPEEWAELAGWQRRLYREVMLENYQAVASLGWPAVKPEIICKMEREEMPCMPAPPRARWRHRTPVPA	3.4265	–
DOMAIN_27827 (protein, Vulpes vulpes) SQELLTFKDIFVDFTQEEWGQLAPAHRNLYREVMLENYGNLVSVGYQLSKPGVISQLEKGEEPWLIEREISGSPSSDLENK	3.1318	–
DOMAIN_27759 (protein, listed as Bos taurus) AEELVTFEDVAVHFSPEELPYLSASQRNLYREVMLENYRNLVSLGYQFPKPDIISQLEEEESHAREEDGSTVTCQDWEEQS	2.2124	–
DOMAIN_1079 (protein, Pan troglodytes) TCMVHRQTMSCSGAGGITAFVAFRDVAVDFTQEEWRLLSPAQRTLHREVMLETYNHLVSLEIPSSKPKLIAQLEQGEEPWR	–	3.7915

Molecule	Log2 (fold change) [1]	Log2 (fold change) [2]
DOMAIN_27639 (protein, listed as Macaca fascicularis) QTDLVTFDSVAVEFTQEEWTLLDPTQRNLYRDVMLENYKNLSSVGYQLFKPSLISWLEEEEELSTLPRVLQEWKMCLKTKG	2.452	–
DOMAIN_27563 (protein, Muntiacus muntjak) QPQGTVTFKDVEVTFSQDEWGLLDASQRNLYRDVMLENYGNMASVVGPFTKPALISWLEAREPWGLNVQGVQFKGNPGAAP	3.6292	–
DOMAIN_28299 (protein, listed as Capra hircus) QPQGTVTFKDVEVTFSQDEWGLLDASQRNLYRDVMLENYGNMASVVGPFTKPALISWLEAREPWGLNVQGVQLKGNPGAAP	3.5584	–
DOMAIN_27581 (protein, listed as Canis lupus) LLTFEDVAVFFSEEEWKLLNPTQKILYSDVMQENYETVISLGLKLKNDTGNDQPISLSTLELQASGCKVLRKARVKVAQKT	2.4582	–
DOMAIN_28103 (protein, listed as Physeter macrocephalus) LLTFEDVALFFTEEEWQLLDPAQKILYYNVMQENYETVTSLGLKLKNDTGNDQPISLSTLEIQASGCKVLRKARMKVAQKT	2.4116	–
DOMAIN_28071 (protein, listed as Enhydra lutris) LLTFEDVAVSFSEEEWRLLDPTQKSLYNDVMQENYETVVSLGLKLKNDTGNDQPISLSALEIQASGCRVLRKARMKVAQKT	3.2938	–
DOMAIN_29260 (protein, listed as Peromyscus maniculatus) VTYNDVHIDFTWEEWTLLDLSQKNLYKDVMLETYWNLLTIGYSWEDHNIEEHCQSSRRYERHERSQAGEKPSIYTQCIKAFEHL	2.5127	–
DOMAIN_27690 (protein, listed as Myotis lucifugus) AAQELVTFQDVFVDFSQEELNSLSAAQRRLHREVTLENYRSLVSLGYRFPKPDIIAQLEEEESRAMEEDGDTKTGPDWETG	3.1465	–
DOMAIN_1153 (protein, Pan troglodytes) MALTQGQLSFSDVAIEFSQEEWKCLDPGQKALYRDVMLENYRNLISLGICLPDLSVTSIFFTSGLGRARLQGGSLARVSRV	–	3.7928
DOMAIN_28619 (protein, listed as Rhinolophus ferrumequinum) MAEGLKFKDVAIYFSQNEWECLHSAQKDLYRDIMLENYNNLISLGLSESKPDVISLLEQRKEPWMVERKETKEWFPDWESR	2.6504	–
DOMAIN_1006 (protein, Pan troglodytes) DSVAFEDVAVNFTQEEWALLDPSQKNLYREVMQETLRNLTSIGKKWNNQYIEDEHQNPKRNLRRLIGERLSESKESHQHGE	–	3.2119
DOMAIN_27285 (protein, listed as Peromyscus maniculatus) YQEALTFQDVKVTFSQEEWGCLDSAQRNLYRDVMLENYGNVVSVVGSSPKPALISWLEARKPSTVNICKVQPKRDSGTAPE	3.092	–
DOMAIN_27777 (protein, listed as Odocoileus virginianus) PQEPVTFADVAVLFTPEEWLFLDSAQKSLYRDVMLENYRNLASVGDQLCKTRMSSHMEQREELCVTERGVFPGAQLGPHLQ	2.6766	–
DOMAIN_27886 (protein, Bison bison) PQEPVTFADVAVLFTPEEWLFLDSAQKSLYRDVMLENYRNLASVGDQLCKTRMSSHLEQREELCVTERGIFPGAHLGPHFQ	2.735	–
DOMAIN_27767 (protein, listed as Callithrix jacchus) SQTLVTFKDVFVDFTREEWKLLDTAQQIVYRNVMLENYKNLVSLGYQLTKPDVILRLEKGEEPWVVERGIHQETHPDSETA	2.2153	–
DOMAIN_1137 (protein, Pan troglodytes) MMQAQESLTLEDVAVDFTWEEWQLLSPAQKDLYRDVMLENYSNLVSVGYQASKPDAFSKLERGEETCTTEDEIYSRICSEI	–	3.1719
DOMAIN_28929 (protein, listed as Mus musculus) LTYDDVYVNFTQEEWALLNPSQKSLYKDVMLETYRNLIAVGYNWEDHNIEEHCQSSRRHGRNERILTGENPYEGIQCGEAFVHH	3.1025	–
DOMAIN_27498 (protein, listed as Sus scrofa) QPQEALTFKDVEVTFSQDEWGWLDASQRNLYRDVMLENYGNIASLMGPFTKPALISWLETREPWVLNVQGAQPEGNPGADV	2.9278	–
